Each structure is given as a SMILES string. Out of some 52,000 compounds screened, about 4,300 (8.3%) were called active. No stated cut-off is given here; in the data, active means survival mostly below about 52% (no sharp cut-off); inactive means mostly above about 56%. The list shows a part of the results.

This assay deals with DeltatarO mutant. Kind of assay: S. aureus survival, RN4220 and DeltatarO strains – OD600, teichoic acid synthesis inhibitors, primary screen (AID 463173). The following applies: S. aureus RN4220 wild type/DeltatarO growth, OD600, 18 h, hits give low values, screened at 18.75 µg/mL (by protocol).
Regarding `CCCCOc1ccc(C(=O)Nc2cccc(-c3nc4cccnc4s3)c2)cc1`, the survival is inactive: 92%.
Turning to `COc1ccc(NC(=O)COc2ccc(-c3nn(C)c(=O)c4ccccc34)cc2)cc1`, the survival is inactive: 75%.
Consider `COc1ccccc1CNC(=O)C(NS(=O)(=O)c1cccs1)C(C)C` (centres undefined), for which the survival is inactive: 58%.
In the case of `Cc1ccc(-c2nc3sc(CCNC(=O)c4ccc(Br)o4)c(C)n3n2)cc1`, the survival was inactive: 84%.
For `COc1ccc(-c2cc3ccc(O)c(CN4CCOCC4)c3oc2=O)cc1OC`, the survival was inactive: 116%.
As to `COc1ccccc1-c1nnc(SCC(=O)c2ccc(Cl)cc2)n1-c1ccccc1`, the survival is active: 1%.
The value for `CCOc1ccc(NC(=O)CSc2nc3c(oc4ccccc43)c(=O)n2-c2ccccc2C)cc1` was inactive: 79%; that for `CC(C)N=C1SC(CC(=O)Nc2ccccc2)C(=O)N1C(C)C` (centres undefined) was inactive: 93%; that for `COc1ccccc1NC(=O)C1=C(C)Nc2ncnn2C1c1ccccc1C(=O)O` (centres undefined) was inactive: 73%.
Then `COc1ccc(-n2c(=O)c3c4c(sc3n(Cc3ccc(F)cc3)c2=O)CCCC4)c(OC)c1`, with inactive: 47%.
The value for `COc1cccc(CNC(=O)c2cc3c(s2)-c2ccccc2OC3)c1` was active: 42%.
Take `COc1ccc(NC(=O)c2cc(C3CC3)nc3c2c(C)nn3-c2ccccc2)cc1`: the survival is inactive: 53%.
Take `COc1ccc(S(=O)(=O)N2CCC(O)(c3cccnc3)CC2)cc1OC`: the survival was inactive: 58%.
The value for `CCOc1ccccc1C(=O)Nc1ccc2nc(N(CC)CC)cc(C)c2c1` was active: 65%; that for `Cc1ccc(OCC(=O)Nc2nnc(SCc3cc(=O)c4ccccc4[nH]3)s2)cc1` was inactive: 99%.
In the case of `Cc1cc(N2CCCCC2)nc2ccc(NC(=O)c3cccc(Cl)c3)cc12`, the survival was active: 0%.
Regarding `CCOc1ccc(CNS(=O)(=O)c2cc3c(cc2C)NC(=O)CO3)cc1OC`, the survival was inactive: 115%.
For the compound `CC1(C)CC(NS(=O)(=O)c2ccc(S(=O)(=O)N3CCOCC3)cc2)CCO1` (centres undefined), the survival was inactive: 62%.
The value for `CCOC(=O)c1c(S(=O)(=O)N2CCCC(C(=O)Nc3cccc(Cl)c3)C2)c(C)n(C)c1C` (centres undefined) was inactive: 91%; that for `CCCCN(CC)CCCNC(=O)CCN1N=C(c2ccc(OC)cc2)CCC1=O` was inactive: 96%.
For `COc1ccccc1NC(=O)C(=O)NCCc1csc(-c2cccc(F)c2)n1`, the survival was inactive: 102%.
With `O=C(NCCc1ccccc1)c1cc(-c2ccc(Cl)cc2)on1`, the survival was inactive: 79%.
With `COc1cccc(NC(=O)Nc2cccc(-c3cn4cccnc4n3)c2)c1`, the survival is inactive: 78%.
As for `CCOc1ccc(-c2nnc(Nc3ccc(S(N)(=O)=O)cc3)c3ccccc23)cc1`, the survival is inactive: 56%.
Take `CCCOC1(C(F)(F)F)NC(=O)N(c2ccc(Cl)cc2)C1=O` (centres undefined): the survival is inactive: 66%.
Take `Cc1cc(C)c(NC(=O)CSc2nc(=O)[nH]c3c2CCCC3)c(C)c1`: the survival was inactive: 83%.
As for `Cc1sc2ncn(CC(=O)N(C)c3ccc(Br)cc3)c(=O)c2c1S(=O)(=O)N1CCC(C)CC1`, the survival is inactive: 70%.
As to `Cc1nc2c(C(=O)NCc3ccccc3)c[nH]n2c(=O)c1Cc1ccccc1Cl`, the survival was inactive: 49%.
`Cc1nnc(SCC(=O)N(C(C)C)C(C)C)[nH]c1=O`: the survival was inactive: 76%.
The value for `CC(=O)N1CCc2cc(S(=O)(=O)CCC(=O)N3CCN(c4cccc(C)c4C)CC3)ccc21` was inactive: 100%; that for `CCN1CCN(CCCNC(=O)c2cnn(-c3ccccc3)c2C2CCN(C(=O)OC(C)(C)C)CC2)CC1` was inactive: 72%; that for `CCOC(=O)c1ccc(Nc2nc3ccccc3nc2NS(=O)(=O)c2ccc(Cl)cc2)cc1` was active: 37%.
The value for `O=C(CSc1nnc(CNc2cccc(Cl)c2)o1)Nc1cccc(Cl)c1` was inactive: 101%; that for `COc1ccc(N2CCN(S(=O)(=O)CCNC(=O)C(c3ccccc3)c3ccccc3)CC2)cc1` was inactive: 79%.
`Sc1ccc2oc3ccc(S)cc3c2c1`: the survival is inactive: 93%.
The value for `Cc1ccc(-c2c(CN3CCN(c4cccc(C(F)(F)F)c4)CC3)csc2C)cc1` was inactive: 76%.
As to `COc1cccc(C2C=C(c3ccc(C)c(C)c3)Nc3nnnn32)c1OC` (centres undefined), the survival is inactive: 72%.
As to `O=C(NC(=O)c1ccc(F)cc1)Nc1ccc(-c2cc(C(F)(F)F)nn2-c2ccccc2)cc1`, the survival was inactive: 61%.
With `O=C(NCCc1csc2nc(-c3ccccc3F)nn12)c1ccco1`, the survival is inactive: 79%.
The value for `Cc1oc2c(c(C)cc3oc(=O)c(CC(=O)NCCc4ccccc4)c(C)c32)c1C` was inactive: 100%; that for `CN1C(C(=O)c2ccccc2)=C(OC(=O)c2ccc(Br)cc2)c2ccccc2S1(=O)=O` was inactive: 123%; that for `Cc1ccc(NC(=O)Nc2ccc3c(c2)N(C)C(=O)c2ccccc2S3)c(C)c1` was inactive: 105%.
Regarding `COc1ccc(NC(=O)c2cc3c(=O)n(Cc4ccco4)ccc3nc2C)cc1`, the survival was inactive: 58%.
As to `CCOC(=O)c1c(C)[nH]c(C)c1S(=O)(=O)NCC(=O)Nc1cc(C)ccc1OC`, the survival was inactive: 60%.
`COc1ccc(-n2ccnc2SCC(=O)Nc2ccc(F)cc2F)cc1`: the survival is inactive: 100%.
On to `Cc1cc2nn(-c3ccccc3)nc2cc1NC(=O)c1cccc2c(Cl)cccc12`, for which the survival was active: 43%.
As to `O=C(NCCc1ccccc1)c1ccc(CS(=O)(=O)c2ccc(Br)cc2)o1`, the survival is inactive: 129%.
Then `Cc1ccc2onc(CNC(=O)N3CCN(c4cccc(C)c4C)CC3)c2c1`, with inactive: 48%; and `COc1ccc(-c2cc(C(=O)Nc3cccnc3Cl)no2)cc1OC`, with inactive: 135%; and `CCSc1nnc2n(-c3cccc(C)c3)c(=O)c3c4c(sc3n12)CCCC4`, with inactive: 71%.
Regarding `O=C(CN1CCC(N2CCCCC2)CC1)NC(c1ccccc1)c1ccccc1`, the survival was inactive: 98%.
With `COc1cc(NC(=O)c2ccc(C)cc2)ccc1NC(=O)c1cc2ccccc2o1`, the survival is inactive: 54%.
For the compound `Cc1ccc(C)c(CN2C(=O)C(=O)c3ccccc32)c1`, the survival was inactive: 92%.
For the compound `CCOC(=O)C1=C(C)C(c2ccc(OC)cc2)NC(=O)N1` (centres undefined), the survival is inactive: 94%.
Take `CCCC(=O)c1cc(F)c(N2CCOCC2)cc1C`: the survival was inactive: 73%.
Then `O=C1CSC2(C(=O)N(Cc3ccccc3F)c3ccccc32)N1c1ccc(F)cc1` (centres undefined), with inactive: 78%; and `O=S(=O)(/C=C/c1ccccc1)N1CCOCC1`, with inactive: 67%; and `CCOc1ccc(-c2nc(SCC(=O)Nc3ccc4c(c3)OCO4)c(-c3ccc(F)cc3)[nH]2)cc1`, with inactive: 84%.
For the compound `Cc1nc2cccnc2n1-c1cccc(C(=O)N2CCN(c3ccc(Cl)cc3)CC2)c1`, the survival was inactive: 85%.
The value for `CCC(=O)N1c2ccccc2CC1C(=O)NCc1ccc(OC(C)C)cc1` (centres undefined) was inactive: 97%; that for `CCN(CCCNC(=O)Cn1ncc2c([nH]c3ccc(C)cc32)c1=O)c1cccc(C)c1` was inactive: 83%.
As to `COc1ccc(Br)cc1CN1C(=O)c2ccccc2C1C(=O)NC1CCCCCC1` (centres undefined), the survival is inactive: 97%.
Turning to `CCOC(=O)c1c(C)c(-c2ccccc2)n(CC(=O)NC2CCCCC2)c1C`, the survival was inactive: 114%.
As to `COc1cc(OC)c(OC)cc1CN1CCN(S(=O)(=O)c2ccc(NC(C)=O)cc2)CC1`, the survival was inactive: 79%.
For the compound `Cc1cccc(-c2nnc(C3CCN(S(=O)(=O)c4cccc(Cl)c4)CC3)o2)c1`, the survival is inactive: 70%.
Take `COc1cc(C2NC(=O)c3c(sc4c3CCN(C)C4)N2)cc(OC)c1OC` (centres undefined): the survival is inactive: 53%.
Turning to `CCOc1cc2[nH]c(=O)n(Cc3ccc(C(=O)N4CCN(c5cccc(Cl)c5)CC4)cc3)c(=O)c2cc1OCC`, the survival is inactive: 80%.
Consider `CCc1ccc(CNC(=O)C2CCN(c3nn4cc(-c5ccc(F)cc5)nc4s3)CC2)cc1`, for which the survival was inactive: 78%.
For `CCc1ccc(NC(=O)C2CCN(c3nn4c(=O)cc(C)nc4s3)CC2)cc1`, the survival was inactive: 101%.
The value for `Clc1ccc(-c2noc3ncnc(NCCc4ccccc4)c23)cc1` was inactive: 78%.
As to `O=C(Nc1ccc2c(c1)CCCN2C(=O)c1cccs1)c1ccccc1Cl`, the survival is inactive: 70%.
Regarding `CCC(=O)Nc1nnc(C(C)(C)C)s1`, the survival is active: 51%.
Take `CCOC(=O)c1c(C)[nH]c(C)c1S(=O)(=O)N1CCCC(C(=O)N2CCN(c3cccc(C)c3C)CC2)C1` (centres undefined): the survival is inactive: 102%.
For `COc1ccc(Cl)cc1NC(=O)c1nn(-c2ccc(C)cc2)c(=O)n(C)c1=O`, the survival was inactive: 80%.
For the compound `COc1cc(NC(=O)Cn2cnc(S(=O)(=O)N3CCCC3)c2)cc(OC)c1OC`, the survival was inactive: 98%.
On to `Cc1cccc(CNC(=O)CS(=O)(=O)c2cccc3nsnc23)c1`, for which the survival was inactive: 78%.
In the case of `CCN(C(=O)c1cnc2ccc(C)cn2c1=O)c1ccccc1`, the survival is inactive: 102%.
Consider `CCOC(=O)C1CCN(C(c2cccc(F)c2)c2c(O)cc(C)n(CCOC)c2=O)CC1` (centres undefined), for which the survival is inactive: 135%.
As for `COCCNC(=O)c1cnc2sc(N3CCC(C)CC3)nn2c1=O`, the survival is inactive: 86%.
The value for `CCC(=O)N(CCC(c1ccccc1)c1ccc2c(c1)OCO2)Cc1ccc(OC(C)C)cc1` (centres undefined) was active: 0%; that for `CCOC(=O)c1c(NC(=O)c2ccc(S(=O)(=O)N(CC(C)C)CC(C)C)cc2)sc2c1CCN(C(=O)OCC)C2` was inactive: 124%; that for `COc1ccc(Cl)cc1NC(=O)c1sc2nc3n(c(=O)c2c1C)CCC3` was inactive: 76%.
Then `COc1ccc(NC(=O)CSc2nnc(-c3nonc3NC(C)=O)n2-c2ccccc2)cc1`, with active: 60%; and `CCCN(C(=O)Cn1cnc2onc(-c3ccc(F)cc3)c2c1=O)c1cccc(Cl)c1`, with inactive: 122%.
Consider `CCC(Sc1nc2ccccc2c(=O)n1CCc1ccc(OC)c(OC)c1)C(=O)N(CC)CC` (centres undefined), for which the survival was inactive: 102%.
Then `CCOc1ccc(CCNS(=O)(=O)c2cc(Br)cc3c2N(C(C)=O)CC3)cc1OCC`, with inactive: 103%; and `Cc1cc(C)n(-c2nc3ccccc3nc2Nc2cccc(C)c2C)n1`, with active: 21%; and `COc1cc(OC)c(Nc2nc3ccc(C(=O)c4ccccc4)cc3n3c(C)nnc23)cc1Cl`, with inactive: 94%.
Regarding `O=c1nc2n(-c3ccccc3F)c3ccccc3cc-2c(=O)[nH]1`, the survival is inactive: 78%.

The values above are taken from PubChem BioAssay AID463173 (ICCB-Longwood Screening Facility, Harvard Medical School, 2010).
